Data as given in the supplement of paper PMC7826260.
Some of the results follow. Viral Rep nickase domains cut single-stranded DNA in vitro (3 µM enzyme, 1 h, 37 °C); shown is the middle of each 90-letter strand. The score is log2 (uncut reads / reads without enzyme); uncut sequences lie near 0, cut ones below; no hit call is given. Reads are scaled to the total; uncut strands gain when others are lost, and binding without cutting may add a little.

Tests used:
Test in all cases: uncleaved DNA left, log2 of reads against the no-enzyme library (log2 ratio); higher = less cleavage (more negative = more Rep cleavage of the k-mer); sequences stand for … in CTCGTCCG…ACCGGAGA
[1] = test system: T1, Rep nickase domain of Muscovy duck circovirus
T1 sequence (residues 1-111, tag not shown): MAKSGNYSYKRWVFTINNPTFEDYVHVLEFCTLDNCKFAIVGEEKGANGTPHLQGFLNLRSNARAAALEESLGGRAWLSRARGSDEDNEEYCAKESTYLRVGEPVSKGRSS
Procedure: (§1)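 A pool of 90-nt single-stranded DNAs with seven random bases just before the constant AC of the nick site (name = the seven bases) was cut by 3 µM recombinant His6-SUMO-tagged Rep nickase domain (300 nM DNA, 50 mM HEPES pH 8.0, 50 mM NaCl, 1 mM MnCl2, 1 h, 37 °C, three replicates). Uncut DNA was amplified and sequenced.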

[2] = test system: T2, Rep nickase domain of banana bunchy top virus
T2 sequence (residues 1-94, tag not shown): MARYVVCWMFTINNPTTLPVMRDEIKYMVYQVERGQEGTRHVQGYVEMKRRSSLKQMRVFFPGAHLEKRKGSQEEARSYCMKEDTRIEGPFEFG
Procedure: as §1

[3] = test system: T3, Rep nickase domain of cabbage leaf curl virus
T3 sequence (residues 1-116, tag not shown): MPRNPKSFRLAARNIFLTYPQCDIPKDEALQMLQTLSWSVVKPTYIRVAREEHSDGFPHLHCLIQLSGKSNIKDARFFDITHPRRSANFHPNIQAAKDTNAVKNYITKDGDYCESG
Procedure: as §1

[4] = test system: T4, Rep nickase domain of chickpea chlorotic dwarf virus
T4 sequence (residues 1-124, tag not shown): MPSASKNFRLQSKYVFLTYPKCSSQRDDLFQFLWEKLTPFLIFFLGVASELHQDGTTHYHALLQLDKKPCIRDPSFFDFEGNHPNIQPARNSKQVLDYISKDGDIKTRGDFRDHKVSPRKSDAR
Procedure: as §1

[5] = test system: T5, Rep nickase domain of faba bean necrotic yellows virus
T5 sequence (residues 1-98, tag not shown): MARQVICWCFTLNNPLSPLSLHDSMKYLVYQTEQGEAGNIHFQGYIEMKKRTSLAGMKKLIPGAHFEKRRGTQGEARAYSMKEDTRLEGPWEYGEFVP
Procedure: as §1

[6] = test system: T6, Rep nickase domain of maize striate mosaic virus
T6 sequence (residues 1-117, tag not shown): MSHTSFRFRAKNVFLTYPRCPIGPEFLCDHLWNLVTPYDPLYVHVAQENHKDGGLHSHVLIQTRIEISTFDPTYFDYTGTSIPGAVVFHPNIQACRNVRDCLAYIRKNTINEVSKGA
Procedure: as §1

[7] = test system: T7, Rep nickase domain of porcine circovirus 2
T7 sequence (residues 2-116, tag not shown): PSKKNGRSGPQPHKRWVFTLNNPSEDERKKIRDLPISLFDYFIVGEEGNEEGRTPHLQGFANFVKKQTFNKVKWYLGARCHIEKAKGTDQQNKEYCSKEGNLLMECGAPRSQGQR
Procedure: as §1

[8] = test system: T8, Rep nickase domain of tomato golden mosaic virus
T8 sequence (residues 1-124, tag not shown): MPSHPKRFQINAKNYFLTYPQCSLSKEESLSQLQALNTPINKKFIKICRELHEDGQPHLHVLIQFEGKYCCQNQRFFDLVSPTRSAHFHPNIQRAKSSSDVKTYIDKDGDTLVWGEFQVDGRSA
Procedure: as §1

[9] = test system: T9, Rep nickase domain of tomato yellow leaf curl virus
T9 sequence (residues 1-136, tag not shown): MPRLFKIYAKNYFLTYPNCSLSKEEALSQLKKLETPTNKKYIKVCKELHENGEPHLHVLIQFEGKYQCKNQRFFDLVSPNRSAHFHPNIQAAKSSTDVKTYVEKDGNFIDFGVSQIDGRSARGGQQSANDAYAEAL
Procedure: as §1

[10] = test system: T10, Rep nickase domain of wheat dwarf virus
T10 sequence (residues 1-137, tag not shown): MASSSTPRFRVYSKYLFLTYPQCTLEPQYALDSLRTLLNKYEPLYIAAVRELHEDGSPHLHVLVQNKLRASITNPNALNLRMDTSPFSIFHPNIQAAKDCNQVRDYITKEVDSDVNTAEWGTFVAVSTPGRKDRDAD
Procedure: as §1

| Sequence | uncleaved DNA left (log2) [1] | uncleaved DNA left (log2) [2] | uncleaved DNA left (log2) [3] | uncleaved DNA left (log2) [4] | uncleaved DNA left (log2) [5] | uncleaved DNA left (log2) [6] | uncleaved DNA left (log2) [7] | uncleaved DNA left (log2) [8] | uncleaved DNA left (log2) [9] | uncleaved DNA left (log2) [10] |
| --- | --- | --- | --- | --- | --- | --- | --- | --- | --- | --- |
| CCATCGC | 0.0514 | 0.0395 | -0.714 | -0.597 | 1.43e-05 | -1.19 | 0.215 | -0.0374 | 0.00781 | -0.1 |
| GTCCTGT | 0.147 | 0.329 | 0.486 | 0.875 | 0.145 | 1.94 | 0.156 | 0.262 | 0.223 | 0.228 |
| CCGCAGC | -0.0765 | -0.144 | -0.389 | -0.197 | -0.15 | -0.817 | 0.019 | -0.000753 | 0.0733 | -0.165 |
| CTTGCTA | -0.176 | -0.142 | -0.662 | -1.26 | -0.162 | -1.35 | -0.112 | -0.232 | -0.146 | -0.328 |
| GCTAGGT | 0.0996 | 0.0905 | 0.394 | 0.904 | -0.0657 | 1.18 | 0.118 | 0.0816 | 0.0205 | 0.145 |
| CCATGAT | -0.393 | -0.00202 | -0.201 | -0.157 | -0.0825 | 0.121 | -1.09 | -0.176 | -0.007 | -0.026 |
| GGCTTGG | 0.0851 | 0.062 | 0.178 | 0.557 | 0.0455 | 0.756 | 0.124 | 0.0928 | 0.0247 | 0.0448 |
| AACTTTT | -4.26 | -3.63 | -1.55 | -2.93 | -0.39 | -0.889 | -4.51 | -0.415 | -0.115 | -0.3 |
| AAACAGG | 0.0941 | 0.113 | -0.00216 | 0.631 | 0.0579 | -0.234 | 0.172 | 0.101 | 0.00264 | 0.178 |
| TTGATCG | 0.00178 | -0.199 | -0.908 | -0.249 | -0.036 | -1.08 | 0.176 | -0.199 | 0.00527 | -0.125 |
| CCGGCGC | 0.0449 | -0.208 | -0.597 | -0.456 | -0.0655 | -0.396 | 0.0636 | -0.104 | -0.105 | -0.232 |
| GCTCCGA | -0.0543 | 0.0824 | 0.134 | 0.544 | -0.104 | 0.0962 | 0.119 | 0.0756 | 0.0465 | 0.124 |
| ATGGCGA | 0.0997 | -0.0958 | -0.646 | 0.201 | 0.0462 | -0.648 | 0.154 | 0.00802 | 0.078 | -0.103 |
| CCGGGAG | 0.124 | -0.0821 | -0.128 | 0.232 | -0.0959 | -0.244 | 0.195 | 0.179 | 0.0216 | 0.114 |
| GTGTCCT | -0.0868 | -0.0292 | 0.305 | 0.784 | 0.00244 | 1.76 | -0.419 | -0.0272 | 0.0165 | 0.0809 |
| CTTTTAC | -1.17 | -0.0412 | -0.37 | -2.09 | -0.0543 | -0.769 | -1.6 | -0.085 | 0.0644 | -0.063 |
| CCAAGAT | -0.144 | -0.113 | -0.0282 | 1.02 | -0.0498 | 1.2 | 0.0711 | -0.148 | -0.168 | -0.145 |
| ATGTGTG | -0.0848 | -0.128 | -0.78 | -0.244 | 0.0164 | -0.899 | 0.119 | -0.106 | 0.0448 | -0.0917 |
| CGGATTA | 0.0307 | 0.0341 | 0.121 | 0.0811 | -0.0437 | 0.472 | 0.0208 | 0.00214 | -0.07 | 0.122 |
| AGTGAGC | -0.00735 | 0.00757 | -0.0848 | 0.169 | -0.0474 | -0.125 | 0.107 | 0.108 | -0.0158 | 0.0495 |
| TTAATGT | 0.0452 | -0.0729 | 0.222 | -0.295 | 0.0483 | -0.405 | -0.0884 | 0.00187 | 0.0394 | 0.000362 |
| CTCATAG | 0.129 | 0.0645 | -0.789 | -0.22 | 0.219 | -1.09 | 0.198 | 0.174 | 0.213 | 0.0123 |
| ATAGTAA | 0.0677 | 0.0393 | -0.0807 | -0.322 | 0.00932 | -0.405 | 0.043 | 0.048 | -0.0436 | 0.0721 |
| GCAACAT | 0.0797 | 0.132 | 0.741 | 1.66 | -0.00216 | 1.77 | 0.172 | 0.0269 | 0.0794 | 0.188 |
| GGGAAGC | 0.0462 | 0.17 | 0.858 | 2.05 | -0.0702 | 2.2 | 0.193 | 0.118 | 0.102 | 0.259 |
| TATGCAA | 0.0495 | 0.146 | -0.21 | -0.813 | 0.0427 | -1.1 | 0.0473 | 0.000146 | 0.14 | 0.0101 |
| ATATCGA | -0.0637 | -0.0786 | -0.477 | -0.728 | 0.00964 | -1.25 | 0.053 | -0.0279 | 0.0731 | 0.0232 |
| CCAATTT | -0.0281 | -0.0583 | -0.157 | -2.51 | 0.0292 | -0.789 | -0.238 | -0.0626 | -0.0895 | -0.234 |
| CGAGTGG | 0.0924 | 0.158 | 0.0764 | 0.651 | 0.122 | 0.808 | 0.257 | 0.194 | 0.171 | 0.259 |
| GGAAGCA | 0.111 | 0.0896 | 0.67 | 1.4 | 0.0437 | 1.69 | 0.144 | 0.0876 | 0.0777 | 0.121 |
